Results are given in words; binding and its absence hold for the method and conditions named. For part of these data: Binding seen in cells or lysates may run through a third protein. Some entries that bind do so weakly or less than the wild type. For part of these data: Sequences can lack the tags named with a protein. Each block holds one substance with its values, some of them ahead of it.
Key:
CB1R-Rluc [1] = biological target: CB1R-Rluc (UniProt P21554); test: FRET or BRET; BRET saturation in HEK-293T cells: constant receptor-Rluc, increasing amounts of GFP-BiP-IR; 5 uM DeepBlueC
CB1R-S452D-Rluc = CB1R-S452D-Rluc (UniProt P21554); test: as above
CB1R-Rluc [2] = biological target: CB1R-Rluc (UniProt P21554); test: FRET or BRET; BRET in HEK-293T cells expressing CB1R-Rluc and GFP-BiP-IR, together or not with nontagged BiP, BiP-IR or BiP-ΔIR as competitors
HA-CB1R = HA-CB1R (UniProt P21554); test: co-IP; HEK-293T cells, 48 h after transfection; lysis in GST buffer (1% NP-40, 100 mM NaCl, pH 7.4); IP with HA-agarose beads or FLAG M2 agarose beads
[3] = biological target: T1, GFP-CB1R-CTD fragment, amino acids 449-460 (UniProt P21554); test: co-IP; HEK-293T cells, 48 h after transfection; lysis in GST buffer (1% NP-40, 100 mM NaCl, pH 7.4); IP with anti-GFP antibody and Protein A/G; blot for FLAG
T1 sequence: CIKSTVKIAKVT

Amino acid sequences for entries named in this document (tags omitted). A change or cut given only in a name is not applied to a line headed by its entry. Residues count along the entry.
UniProt P47746: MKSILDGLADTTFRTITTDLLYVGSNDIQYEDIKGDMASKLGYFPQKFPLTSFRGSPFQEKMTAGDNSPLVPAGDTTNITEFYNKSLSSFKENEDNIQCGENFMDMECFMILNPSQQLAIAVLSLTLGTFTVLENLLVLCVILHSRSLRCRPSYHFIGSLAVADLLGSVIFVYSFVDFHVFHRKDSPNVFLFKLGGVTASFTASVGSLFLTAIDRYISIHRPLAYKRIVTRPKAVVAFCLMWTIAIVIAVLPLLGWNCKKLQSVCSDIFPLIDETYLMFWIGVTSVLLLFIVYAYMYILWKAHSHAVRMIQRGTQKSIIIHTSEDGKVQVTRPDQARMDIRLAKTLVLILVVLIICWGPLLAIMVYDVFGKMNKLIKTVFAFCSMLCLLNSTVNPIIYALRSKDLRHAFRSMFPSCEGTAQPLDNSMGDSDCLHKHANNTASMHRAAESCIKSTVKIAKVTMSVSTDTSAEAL
UniProt P11021: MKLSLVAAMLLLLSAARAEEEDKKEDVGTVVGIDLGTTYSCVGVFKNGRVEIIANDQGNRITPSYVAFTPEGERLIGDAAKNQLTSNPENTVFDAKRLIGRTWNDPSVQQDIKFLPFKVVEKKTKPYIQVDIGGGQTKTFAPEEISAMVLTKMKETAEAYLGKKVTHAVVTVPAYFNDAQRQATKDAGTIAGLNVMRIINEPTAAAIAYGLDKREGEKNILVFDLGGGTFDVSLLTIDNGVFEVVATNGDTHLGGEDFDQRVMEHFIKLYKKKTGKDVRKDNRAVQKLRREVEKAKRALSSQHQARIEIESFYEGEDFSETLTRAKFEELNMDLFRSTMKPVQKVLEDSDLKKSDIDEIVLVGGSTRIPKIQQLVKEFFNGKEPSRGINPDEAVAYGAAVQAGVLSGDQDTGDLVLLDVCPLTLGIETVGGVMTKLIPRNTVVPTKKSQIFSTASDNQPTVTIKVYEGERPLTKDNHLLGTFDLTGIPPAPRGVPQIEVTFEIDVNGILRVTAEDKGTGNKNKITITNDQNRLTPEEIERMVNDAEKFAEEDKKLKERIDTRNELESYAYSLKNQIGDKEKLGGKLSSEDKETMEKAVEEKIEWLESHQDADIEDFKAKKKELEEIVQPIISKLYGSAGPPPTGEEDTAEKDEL
UniProt P20029, residues 20-655: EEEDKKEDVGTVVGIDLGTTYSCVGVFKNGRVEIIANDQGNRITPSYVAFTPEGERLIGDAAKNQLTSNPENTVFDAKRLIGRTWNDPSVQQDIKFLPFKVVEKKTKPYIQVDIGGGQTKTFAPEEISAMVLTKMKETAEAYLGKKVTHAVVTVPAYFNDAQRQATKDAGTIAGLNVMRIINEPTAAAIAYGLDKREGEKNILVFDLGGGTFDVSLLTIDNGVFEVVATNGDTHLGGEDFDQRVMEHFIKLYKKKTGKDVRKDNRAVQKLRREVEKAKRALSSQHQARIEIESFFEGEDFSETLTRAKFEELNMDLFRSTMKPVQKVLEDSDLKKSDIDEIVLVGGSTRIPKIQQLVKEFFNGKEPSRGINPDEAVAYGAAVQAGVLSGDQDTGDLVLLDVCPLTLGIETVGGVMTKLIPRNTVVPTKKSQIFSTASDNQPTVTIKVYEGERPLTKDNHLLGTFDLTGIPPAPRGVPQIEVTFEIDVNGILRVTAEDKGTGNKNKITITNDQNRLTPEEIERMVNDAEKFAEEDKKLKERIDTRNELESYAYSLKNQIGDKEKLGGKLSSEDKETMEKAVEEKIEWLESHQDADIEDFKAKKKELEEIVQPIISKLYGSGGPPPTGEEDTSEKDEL

[4] = biological target: CB1R, endogenous in mouse brain (mouse (endogenous in mouse brain)) (UniProt P47746); test: proximity ligation; Duolink in situ PLA on fixed synaptosomes from hippocampus, striatum and cortex of CB1R-WT and CB1R-KO mice; rabbit anti-CB1R and mouse anti-GRP78/BiP antibodies
[5] = biological target: CB1R, endogenous in mouse brain (mouse (endogenous in mouse brain)) (UniProt P47746); test: proximity ligation; Duolink in situ PLA on 30-um fixed brain sections (hippocampus, striatum, cortex) of CB1R-floxed, CB1R-KO, GABA-CB1R-KO, Glu-CB1R-KO, Stop-CB1R, CB1R-RS, GABA-CB1R-RS and Glu-CB1R-RS mice; read-out: percent of cells with one or more dots
[6] = biological target: CB1R carboxyl-terminal domain (CB1R-CTD, amino acids 408-472), Y2H bait (UniProt P21554); test: two-hybrid; library screen: CB1R-CTD (amino acids 408-472) as bait, human cDNA library (>10^6 clones) as prey; MatchMaker system
[7] = biological target: T2, CB1R-CTD fragment, residues 449-472, Y2H bait (UniProt P21554); test: two-hybrid; directed Y2H: GAL4 binding domain bait and GAL4 activation domain prey; growth on Leu/Trp/His-deficient plates with 12 mM 3-aminotriazole and X-Gal hydrolysis
T2 sequence: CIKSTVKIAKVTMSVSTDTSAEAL

CB1R-CTD-S410D = CB1R-CTD-S410D (UniProt P21554); test: as above
CB1R-CTD-S414D = CB1R-CTD-S414D (UniProt P21554); test: as above
CB1R-CTD-S425D = CB1R-CTD-S425D (UniProt P21554); test: as above
CB1R-CTD-S429D = CB1R-CTD-S429D (UniProt P21554); test: as above
CB1R-CTD-S441D = CB1R-CTD-S441D (UniProt P21554); test: as above
CB1R-CTD-S448D = CB1R-CTD-S448D (UniProt P21554); test: as above
CB1R-CTD-S452D = CB1R-CTD-S452D (UniProt P21554); test: as above
CB1R-CTD-S462D = CB1R-CTD-S462D (UniProt P21554); test: as above
CB1R-CTD-S464D = CB1R-CTD-S464D (UniProt P21554); test: as above
CB1R-CTD-S468D = CB1R-CTD-S468D (UniProt P21554); test: as above
CB1R-CTD-T418D = CB1R-CTD-T418D (UniProt P21554); test: as above
CB1R-CTD-T453D = CB1R-CTD-T453D (UniProt P21554); test: as above
CB1R-CTD-T460D = CB1R-CTD-T460D (UniProt P21554); test: as above
CB1R-CTD-T465D = CB1R-CTD-T465D (UniProt P21554); test: as above
CB1R-CTD-T467D = CB1R-CTD-T467D (UniProt P21554); test: as above

Substance: BiP, nontagged (from UniProt P11021 19-654)
binding (CB1R-Rluc [2]): binds

Substance: 3xFLAG-BiP-IR (from UniProt P11021 497-654) (domain or fragment)
binding (HA-CB1R): binds
binding [3]: binds

Substance: 3xFLAG-BiP (from UniProt P11021 19-654)
binding (HA-CB1R): binds

Substance: BiP, endogenous in mouse brain (from UniProt P20029 20-655)
binding [4]: binds
binding [5]: binds

Results, then the substance that gave them:

binding (CB1R-Rluc [1]): binds
binding (CB1R-S452D-Rluc): no binding
binding (CB1R-Rluc [2]): binds
Substance: GFP-BiP-IR (from UniProt P11021 497-654) (domain or fragment)

binding (CB1R-Rluc [2]): binds
Substance: BiP-IR, nontagged (from UniProt P11021 497-654) (domain or fragment)

binding [6]: binds
binding [7]: binds
binding (CB1R-CTD-S410D): binds
binding (CB1R-CTD-S414D): binds
binding (CB1R-CTD-S425D): binds
binding (CB1R-CTD-S429D): binds
binding (CB1R-CTD-S441D): binds
binding (CB1R-CTD-S448D): binds
binding (CB1R-CTD-S452D): no binding
binding (CB1R-CTD-S462D): binds
binding (CB1R-CTD-S464D): binds
binding (CB1R-CTD-S468D): binds
binding (CB1R-CTD-T418D): binds
binding (CB1R-CTD-T453D): binds
binding (CB1R-CTD-T460D): binds
binding (CB1R-CTD-T465D): binds
binding (CB1R-CTD-T467D): binds
Substance: BiP-interacting region (BiP-IR, BiP amino acids 497-654), Y2H prey (from UniProt P11021 497-654) (domain or fragment)

Reference: PMC8460140
